# Test results from PubChem BioAssay AID761 (NMMLSC, 2007).
# Among all 190,000 compounds or so, about 400 (0.21%) were called active. Inconclusive results, whose numbers are uncertain, are shown with a selection of clear calls.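 How the source made its calls: active means percent activity GTP binding at least 20 points away from the 100% baseline, either down as inhibitor or up as activator; inconclusive means compound flagged as likely green fluorescent from well-wide comparison; inactive means the rest.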
# Target: Cell division control protein 42 homolog (Homo sapiens) (UniProt P60953)
# Sequence of UniProt P60953 (P60953 whole entry, looked up): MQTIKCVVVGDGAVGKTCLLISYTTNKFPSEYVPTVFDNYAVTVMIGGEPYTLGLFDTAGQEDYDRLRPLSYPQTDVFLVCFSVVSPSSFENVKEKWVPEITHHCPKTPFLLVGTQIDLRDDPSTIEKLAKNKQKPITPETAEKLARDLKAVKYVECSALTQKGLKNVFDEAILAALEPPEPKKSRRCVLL
# Assay: wildtype Cdc42 fluorescent GTP binding changes, either direction – biochemical, multiplex bead flow cytometry, Bodipy-GTP, primary screen (AID 761);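 further: median bead fluorescence of bound Bodipy-FL-GTP at 100 nM; 0% = excess unlabeled GTP control and 100% = no compound control; below 100% means less GTP binding so inhibitor and above means activator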
# Conditions: GST-Cdc42 beads, at 10 µM, actives lie on both sides
row,SMILES,percent activity (GTP binding)
1,CCCC(=O)N(Cc1cc2ccccc2[nH]c1=O)c1ccccc1OC,inconclusive: 108%
2,CCOc1cccc(CN2CCN(CCc3ccccc3)C(CCO)C2)c1O (stereo unspecified),inactive: 87%
3,CCN(CC)S(=O)(=O)c1cc(NC(=O)CSc2nc3c(cc2C#N)C(=O)CC(C)(C)C3)ccc1C,inactive: 100%
4,O=[N+]([O-])c1ccc(C(O)CN=Cc2ccc(O)cc2O)cc1 (stereo unspecified),inactive: 97%
5,O=C(CSc1nnc(SCc2cccc3ccccc23)s1)c1ccc2c(c1)OCO2,inconclusive: 90%
6,CCOC(=O)NC(Nc1ncccn1)(C(F)(F)F)C(F)(F)F,inconclusive: 93%
7,COc1ccc(N2CCN(CCNC(=O)c3ccc4c(c3)[nH]c(=S)n3c5ccccc5nc43)CC2)cc1,inactive: 94%
8,Cc1cccc(NS(=O)(=O)c2cccc3nonc23)c1,inconclusive: 95%
9,CCN(CC)S(=O)(=O)c1ccc(NC(=O)Cc2cccs2)cc1,inconclusive: 97%
10,COC(=O)c1cc2c(ccn2-c2ccc(F)cc2)n1CC(=O)OC(C)C,inconclusive: 97%
11,Cc1cc(S(=O)(=O)N(Cc2ccc(F)cc2)CC2CCCO2)ccc1-n1cnnn1 (stereo unspecified),inconclusive: 105%
12,COc1ccc(NC(=O)c2c(N)no[n+]2[O-])cc1,inconclusive: 93%
13,COCCN(C(=S)Nc1cc(C)ccc1C)C(C)c1cccnc1 (stereo unspecified),inconclusive: 300%
14,COc1ccc(Cl)cc1NC(=S)Nc1ccccc1C,inactive: 97%
15,CCN(CC)c1ccc(-c2nc3cnccn3c2NC2CCCC2)cc1,inactive: 98%
16,COc1ccc(CN(Cc2ccc(C(=O)O)cc2)C(=S)Nc2ccc(C)cc2)cc1OC,inactive: 92%
17,COc1ccc(-c2cc(C(F)(F)F)nc(NCc3ccco3)n2)cc1OC,inconclusive: 102%
18,COCCN(CCOC)S(=O)(=O)c1ccc(C(=O)Nc2nc(-c3ccncc3)cs2)cc1,inconclusive: 92%
19,COc1ccc2ccccc2c1C(=O)/C=C\c1ccoc1,inconclusive: 101%
20,Cc1nonc1C(=O)N/N=C/c1ccc(O)cc1O,inactive: 100%
21,CCCOC(=O)c1ccc(Cl)c(NC(=O)c2ccc(-c3ccccc3)cc2)c1,inconclusive: 107%
22,Cc1n[nH]c(C)c1S(=O)(=O)N1CCC(C(=O)O)CC1,inconclusive: 106%
23,Brc1ccc(C2Nc3cccc4cccc(c34)N2)s1,inactive: 96%
24,CCN(CC)c1ccc(/C=c2\sc3nnc(-c4ccccc4Cl)n3c2=O)cc1,inconclusive: 143%
25,CCCn1c(SCCc2ccccc2)nc2c1c(=O)[nH]c(=O)n2C,inconclusive: 106%
26,Cn1ccnc1C1CCCCN1Cc1nc(-c2ccc(Cl)cc2)no1 (stereo unspecified),inactive: 97%
